The values that follow come from the supplement of paper PMC9334596.

Several values for one entry are separate records, joined by “and”; a condition that tells them apart may be missing. Equal values may be shown once. In all, about 5,300 compounds were measured (“PER2::LUC luminescence relative to vehicle control”: median about 0.96, highest 2% from about 1.3 on). This is one part of the list.

The assay concerns mPer2Luc MEF. The assay can be described thus: PER2::LUC luminescence relative to vehicle control (fold of vehicle); higher = higher PER2::LUC reporter signal. To be noted: 10 µM. An outline of the steps: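 In 384-well plates, ~3000 mPer2Luc reporter mouse embryonic fibroblasts per well were cultured in DMEM with 10% FBS at 37 °C and 5% CO2 for 48 h before compounds from commercial libraries were added at 10 μM. ONE-Glo luciferase readings were taken 24 h and 30 h after treatment. Each value is PER2::LUC luminescence given as fold of vehicle control.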

`c1cc(CN2CCCCC2)cc(OCCCNc2nc3ccccc3s2)c1`: the “PER2::LUC luminescence” value is 0.859 and 0.687 (time after treatment 24 h); 0.827 and 0.781 (time after treatment 30 h).
Regarding `COC(=O)C(O)c1ccccc1` (configuration not stated), the “PER2::LUC luminescence” value was determined as 1.06 (time after treatment 24 h) and 0.999 (time after treatment 30 h).
As to `Cc1cccc(Oc2nc3c(C)cccn3c(=O)c2C=C(C#N)c2nc3ccccc3s2)c1`, the “PER2::LUC luminescence” value reads like this: (time after treatment 24 h) 1; (time after treatment 30 h) 1.04.
The matching figures for `O=C(O)c1cccc(-c2noc(-c3ccccc3F)n2)c1`: 1.69 and 2.11.
As to `Nc1ccc(S(=O)(=O)Nc2nccs2)cc1`, the “PER2::LUC luminescence” value was 0.855 and 1.1 (time after treatment 24 h); 0.984 and 1.09 (time after treatment 30 h).
Take `COC(=O)N[C@H](C(=O)NNC[C@H](O)[C@H](Cc1ccccc1)NC(=O)[C@@H](NC(=O)OC)C(C)(C)C)C(C)(C)C`: the “PER2::LUC luminescence” value came out at 0.974 (time after treatment 24 h) and 0.963 (time after treatment 30 h).
In the case of `O=C1c2ccccc2C(=O)c2c(O)c(O)cc(O)c21`, the “PER2::LUC luminescence” value is, setting by setting: (time after treatment 24 h) 1.03; (time after treatment 30 h) 1.
Take `Cc1ccc(-c2cc(C(F)(F)F)nn2-c2ccc(S(N)(=O)=O)cc2)cc1`: the “PER2::LUC luminescence” value reads like this: (time after treatment 24 h) 0.919; (time after treatment 30 h) 0.986.
With `CC(C)[N+]1(C)[C@@H]2CC[C@H]1C[C@@H](OC(=O)C(CO)c1ccccc1)C2` (some centres not stated), the “PER2::LUC luminescence” value (time after treatment 24 h) is 0.769 and the “PER2::LUC luminescence” value (time after treatment 30 h) came out at 0.969.
The matching figures for `C=CCn1c(=O)c2c(nc(-c3ccccc3)n2C)n(C)c1=O`: 0.98 and 0.951.
Turning to `OCCn1cc(-c2ccc3c(c2)CC/C3=N\O)c(-c2ccncc2)n1`, the “PER2::LUC luminescence” value runs as follows: (time after treatment 24 h) 1.15; (time after treatment 30 h) 1.3.
As to `CCC(C)(C)N=C(NC#N)Nc1cccnc1`, the “PER2::LUC luminescence” value reads like this: (time after treatment 24 h) 0.948; (time after treatment 30 h) 0.936.
Consider `CN1CCc2nc(C(=O)N[C@@H]3C[C@@H](C(=O)N(C)C)CC[C@@H]3NC(=O)C(=O)Nc3ccc(Cl)cn3)sc2C1`, for which the “PER2::LUC luminescence” value (time after treatment 24 h) is 1.09 and the “PER2::LUC luminescence” value (time after treatment 30 h) is 1.04.
As for `CCOC(=O)C1=C(C)NC(=S)NC1c1cccc(O)c1` (configuration not stated), the “PER2::LUC luminescence” value runs as follows: (time after treatment 24 h) 1.06; (time after treatment 30 h) 1.07.
Consider `N#Cc1c(N(CC(=O)O)CC(=O)O)sc(C(=O)O)c1CC(=O)O`, for which the “PER2::LUC luminescence” value runs as follows: (time after treatment 24 h) 1.18; (time after treatment 30 h) 1.28.
In the case of `CC[C@H]1OC(=O)[C@H](C)[C@@H](O[C@H]2C[C@@](C)(OC)[C@@H](O)[C@H](C)O2)[C@H](C)[C@@H](O[C@@H]2O[C@H](C)C[C@H](N(C)C)[C@H]2O)[C@](C)(O)C[C@@H](C)CN(C)[C@H](C)[C@@H](O)[C@]1(C)O`, the “PER2::LUC luminescence” value is 0.796 and 0.785 (time after treatment 24 h); 0.894 and 0.822 (time after treatment 30 h).
Turning to `O=C1c2ccccc2C(=O)c2oc(-c3ccccc3)nc21`, the “PER2::LUC luminescence” value (time after treatment 24 h) was 1.15 and the “PER2::LUC luminescence” value (time after treatment 30 h) stood at 0.538.
In the case of `COCCNC(=O)COc1ccc(OCCNC[C@H](O)COc2ccccc2)cc1`, the “PER2::LUC luminescence” value runs as follows: (time after treatment 24 h) 0.945; (time after treatment 30 h) 0.959.
`CN[C@H]1CC[C@@H](c2ccc(Cl)c(Cl)c2)c2ccccc21`: the “PER2::LUC luminescence” value by setting is: (time after treatment 24 h) 0.701 and 0.651; (time after treatment 30 h) 0.687 and 0.651.
Turning to `O=C(/C=C/c1ccc(O)c(O)c1)O[C@H](Cc1ccc(O)c(O)c1)C(=O)O`, the “PER2::LUC luminescence” value runs as follows: (time after treatment 24 h) 0.985; (time after treatment 30 h) 0.934.
Regarding `O=C1/C(=C/c2ccc(O)c(O)c2)Oc2c1ccc(O[C@@H]1O[C@H](CO)[C@@H](O)[C@H](O)[C@H]1O)c2O`, the “PER2::LUC luminescence” value (time after treatment 24 h) is 0.983 and the “PER2::LUC luminescence” value (time after treatment 30 h) came out at 0.93.
`CC(C)C[C@H](N)CS`: the “PER2::LUC luminescence” value is, setting by setting: (time after treatment 24 h) 1.03; (time after treatment 30 h) 0.835.
Turning to `C=C1O[C@@](CO)(n2cnc3c(N)ncnc32)[C@H](O)[C@@H]1O`, the “PER2::LUC luminescence” value was found to be 1.07 (time after treatment 24 h) and 0.943 (time after treatment 30 h).
`COC(=O)[C@H](Cc1ccccc1)NC(=O)[C@@H](N)CC(=O)O`: the “PER2::LUC luminescence” value is, setting by setting: (time after treatment 24 h) 0.847; (time after treatment 30 h) 1.18.
The matching figures for `C[C@H]1CC[C@@]2(OC1)O[C@H]1C[C@H]3[C@@H]4CC[C@@H]5C[C@@H](O)CC[C@]5(C)[C@H]4CC[C@]3(C)[C@H]1[C@@H]2C`: 1.01 and 1.04.
With `C1CCC(N=C(NC23CC4CC(CC(C4)C2)C3)N2CCOCC2)CC1`, the “PER2::LUC luminescence” value worked out at 0.978 (time after treatment 24 h) and 0.95 (time after treatment 30 h).
Consider `COC(=O)c1c(OC)cc2c(c1C)Oc1c(Cl)c(O)c(Cl)c(C)c1C(=O)O2`, for which the “PER2::LUC luminescence” value is 0.952 (time after treatment 24 h) and 0.932 (time after treatment 30 h).
The matching figures for `COc1cc(CNC(=O)CCCC/C=C/C(C)C)ccc1O`: 0.847 and 0.928.
Take `O=C(NCCCN1CCOCC1)c1ccc(Cl)cc1`: the “PER2::LUC luminescence” value reads like this: (time after treatment 24 h) 1.08; (time after treatment 30 h) 1.1.
With `O=C(O)C[C@H]1CC[C@H](c2ccc(-c3ccc(Nc4ccc(C(F)(F)F)nc4)cn3)cc2)CC1`, the “PER2::LUC luminescence” value (time after treatment 24 h) stood at 1.11 and the “PER2::LUC luminescence” value (time after treatment 30 h) worked out at 1.13.
The matching figures for `CNC(=O)[C@@H](NC(=O)[C@H](CC(C)C)[C@H](O)C(=O)NO)C(C)(C)C`: 0.485 and 0.866.
Regarding `C[C@]12CC[C@@H]3c4ccc(O)cc4C[C@@H](CCCCCCCCC[S+]([O-])CCCC(F)(F)C(F)(F)F)[C@H]3[C@@H]1CC[C@@H]2O` (some centres not stated), the “PER2::LUC luminescence” value runs as follows: (time after treatment 24 h) 1.02; (time after treatment 30 h) 1.01.
For the compound `C=C[C@](C)(O)CC[C@@H]1[C@@]2(C)CCCC(C)(C)[C@@H]2CC[C@@]1(C)O`, the “PER2::LUC luminescence” value (time after treatment 24 h) came out at 0.549 and the “PER2::LUC luminescence” value (time after treatment 30 h) was determined as 0.865.
As for `CO/N=C(\C(=O)N[C@@H]1C(=O)N2C(C(=O)O)=C(COC(C)=O)CS[C@H]12)c1csc(N)n1`, the “PER2::LUC luminescence” value turned out to be 0.908 (time after treatment 24 h) and 0.822 (time after treatment 30 h).
For the compound `Cc1cc(Oc2ccc3nc(COc4ccc(CC5SC(=O)NC5=O)cc4)n(C)c3c2)cc(C)c1N` (configuration not stated), the “PER2::LUC luminescence” value reads like this: (time after treatment 24 h) 1.1; (time after treatment 30 h) 1.03.
Consider `CC(C)Oc1ccc2c(=O)c(-c3ccccc3)coc2c1`, for which the “PER2::LUC luminescence” value reads like this: (time after treatment 24 h) 1.9; (time after treatment 30 h) 1.92.
Consider `CC(C)c1c2cc(-c3ccnc(NC4CCC(NC5CCOCC5)CC4)n3)ccc2nn1C` (configuration not stated), for which the “PER2::LUC luminescence” value by setting is: (time after treatment 24 h) 0.008; (time after treatment 30 h) 0.002.
Consider `Cc1cc2cc3c(C)cc(=O)oc3c(C)c2o1`, for which the “PER2::LUC luminescence” value (time after treatment 24 h) is 0.953 and 0.55; the “PER2::LUC luminescence” value (time after treatment 30 h) is 0.902 and 1.1.
For `CC(=O)Nc1c(I)cc(I)c(C(=O)O)c1I`, the “PER2::LUC luminescence” value was 1.03 and 0.947 (time after treatment 24 h); 0.949 and 1.27 (time after treatment 30 h).
Turning to `CC(=O)O[C@]1(C)CC[C@@]23C[C@H]1C(C)(C)[C@@H]2CC[C@H]3C`, the “PER2::LUC luminescence” value runs as follows: (time after treatment 24 h) 0.953; (time after treatment 30 h) 0.904.
The matching figures for `CC(=O)Nc1nnc(S(N)(=O)=O)s1`: 0.944 and 1.2.
